# Reference: PubChem BioAssay AID686978 (National Center for Advancing Translational Sciences (NCATS), 2013)
# Values joined by “and” are separate entries in the source; they are usually repeats but may differ in a detail not shown here. Identical values can stand only once. Out of some 420,000 compounds screened, about 64,000 (15%) were called active. Inconclusive means that the source gave no clear call. Such entries were picked first, then a sample of the others. The call rests on the fitted dose curve; in most records, active means well fitted inhibition curve with a large enough effect; inconclusive means small, poorly fitted or top-dose-only effect; inactive means flat fitted curve, though single readings scatter. Potencies beside an inconclusive call are fits to weak or partial responses and may not hold up. Some structures have more than one record in an assay (separate samples or runs), and their calls can disagree.
# Assay: qHTS for Inhibitors of human tyrosyl-DNA phosphodiesterase 1 (TDP1): qHTS in cells in absence of CPT; further: nearly all actives have a fitted effect of over 55% in size
# Conditions: DT40 Tdp1-/- hTDP1 cells, no CPT, ATP luminescence, 48 h; activity change, negative = growth inhibition: at 46.2 µM (top of the series) unless noted
# Summary of the method: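 Compound effects on proliferation are scored in DT40 Tdp1-/-;hTDP1 cells in the absence of CPT. ATP levels (CellTiter-Glo luminescence) are recorded after a ≥48 hr, 37 °C incubation.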
# On the % scale 0 is the no-effect control and ±100 the full control effect; potency means the concentration at half of the fitted maximal effect; tags describe the fitted curve by direction and shape.
SMILES,Potency,"activity change, negative = growth inhibition"
CC(C)(C)NCC(O)c1cc(Cl)c(N)c(Cl)c1 (stereo not given),"inconclusive: 29.1 µM [inhibitor, single point]",
CC(=O)Nc1ccccc1C(=O)OCC(=O)Nc1ncccn1,,inactive: 11.3%
Cc1oc(-c2cccc(Cl)c2)nc1CN1CCC(C(=O)NCCCN2CCN(c3ccc(F)cc3)CC2)CC1,active: 2.91 µM,
CSc1ccc(C(=O)C2CCCN(Cc3cccnc3)C2)cc1 (stereo not given),"inconclusive: 16.4 µM [inhibitor, partial curve, poor fit]",
Clc1ccc(OCC#CCN2CCCCCC2)cc1,"inconclusive: 29.1 µM [inhibitor, single point]",
O=C(N/N=C/c1c(O)n(CCc2ccccc2)c(=O)[nH]c1=O)c1ccccc1,"inconclusive: 18.4 µM [inhibitor, single point]",
CN1CCC(O)(c2ccccc2)C(C(=O)c2ccccc2)C1 (stereo not given),active: 18.4 µM,
COc1ccc(CN2CCN(C(=O)Cc3ccccc3)CC2)cc1OC,,inactive: 0.416%
C=C(C)[C@H]1Cc2c(ccc3c2O[C@@H]2COc4cc(OC)c(OC)cc4[C@@H]2C3=O)O1,active: 150 nM and active: 237 nM,
COc1cccc(-c2nc(CS(=O)CC(=O)N3CCC4(CC3)OCCO4)c(C)o2)c1 (stereo not given),,inactive: 2.7%
CC(=O)c1ccc(Oc2nc(C)nc3c2oc2ccccc23)cc1,"inconclusive: 29.1 µM [inhibitor, single point]",
CCOC(=O)c1c(NS(=O)(=O)c2ccccc2)n(CCCOC)c2nc3ccccc3nc12,"inconclusive: 25.9 µM [inhibitor, single point]",
O=C1NCN(c2ccccc2)C12CCN(C(CCc1ccccc1)c1nnnn1C1CCCC1)CC2 (stereo not given),"inconclusive: 18.4 µM [inhibitor, single point]",
CC(=Nc1ccccc1N)c1c(O)n(C)c(=O)n(C)c1=O,,inactive: -16.2%
COc1ccc(CCNc2nccn(-c3ccc(C)c(C)c3)c2=O)cc1OC,active: 13 µM,
CCCCCn1c(=O)c(C(=O)Nc2c(C)n(C)n(-c3ccccc3)c2=O)c(O)c2ccccc21,active: 4.61 µM,
CCc1ccccc1NC(=O)C(CC)Oc1ccccc1-c1nnc(-c2ccccc2)o1 (stereo not given),active: 5.17 µM,
CCc1ccc(N2C(=O)NC(=O)/C(=C\c3cc(C)n(-c4cc(C(=O)O)cc(C(=O)O)c4)c3C)C2=O)cc1,,inactive: -17.8%
Nc1cc(C(=O)Nc2ccccc2F)ccc1N1CC2CC(C1)c1cccc(=O)n1C2 (stereo not given),"inconclusive: 23.1 µM [inhibitor, single point]",
Nc1nc(F)nc2c1ncn2[C@@H]1O[C@H](CO)[C@@H](O)[C@@H]1O,active: 531 nM and active: 473 nM and active: 164 nM,
CCOc1ccc(C(C)=O)cc1Cn1ccsc1=N,,inactive: -22.4%
CN1C2CCC1CC(OC(=O)c1ccc(Cl)cc1)C2 (stereo not given),"inconclusive: 16.4 µM [inhibitor, partial curve]",
CCCCOC1OCN(C2CCCCC2)CC1(C)C (stereo not given),"inconclusive: 29.1 µM [inhibitor, partial curve, poor fit]",
Nc1c(Br)cc2c3c(cccc13)-c1ccccc1-2,active: 5.17 µM,
COC(=O)C1=C(c2ccccc2OCc2ccccc2)C[C@@H]2CC[C@H]1N2C(=O)NC1CCN(Cc2ccccc2)CC1,active: 23.1 µM,

SMILES,Potency,"activity change, negative = growth inhibition"
O/N=C1\CCC2CN(C3CCCCC3)CC2C1 (stereo not given),,inactive: -28.6%
Cc1nn(Cc2ccccc2)c2c1C(c1ccco1)C(C#N)=C(N)O2 (stereo not given),"inconclusive: 23.1 µM [inhibitor, single point]",
O=C(NN=Cc1ccc(N(CCCl)CCCl)cc1)c1cccnc1,active: 9.2 µM,
S=C(c1ccc(Cl)cc1)N1CCOCC1,,inactive: -4%
Cc1nn(-c2ccccc2)c2c1C(c1ccc3c(c1)OCO3)SCC(=O)N2 (stereo not given),"inconclusive: 35.5 µM [inhibitor, single point]",
c1cc2cc(c1)C[n+]1ccc(c3ccccc31)NCc1ccc(cc1)CNc1cc[n+](c3ccccc13)C2,active: 6.68 µM,
O=C(N/N=C\C1C(=O)NC(=S)N(c2ccccc2)C1=O)c1ccc(O)cc1 (stereo not given),,inactive: 9.19%
O=C1/C(=C\c2ccccc2)C[C@@]2(O)[C@H]3Cc4ccc(O)c5c4[C@@]2(CCN3CC2CC2)[C@H]1O5,active: 2.06 µM,
O=C(/C=C/c1ccc(Cl)cc1)N[C@@]12CCC(=O)[C@@H]3Oc4c(O)ccc5c4[C@@]31CCN(CC1CC1)C2C5,active: 10.3 µM,
COC(=O)C[C@]1(C(=O)OC)CN(C#N)N(c2ccc(Cl)cc2)C12c1ccccc1-c1ccccc12,active: 0.92 µM,
Cc1ccc(OCC(=O)N2CCN(Cc3ccc4c(c3)OCO4)CC2)cc1,"inconclusive: 16.4 µM [inhibitor, partial curve]",
Cc1ccc(C(=O)N[C@@H](C)CN2C3=NC[C@@H](Cc4ccccc4)N3C[C@H]2Cc2ccc(O)cc2)cc1Br,active: 7.31 µM,
CCCOP(=O)(OCCC)C(NC(=O)c1cc(OC)c(OC)c(OC)c1)c1ccccc1 (stereo not given),"inconclusive: 20.6 µM [inhibitor, single point]",
CC12CCC3c4ccc(O)c([N+](=O)[O-])c4CCC3C1CCC2=O (stereo not given),"inconclusive: 29.1 µM [inhibitor, single point]",
CCCOc1ccc(C(=O)Nc2ccc(-c3cc4ccccc4oc3=O)c(C)c2)cc1,active: 5.17 µM,
CN(Cc1ccc(OC(F)F)cc1)Cc1nc2c(Br)cc(Br)cc2c(=O)[nH]1,active: 16.4 µM,
Cc1ccc(-c2nc(S(=O)(=O)c3ccccc3)c(SCC(=O)NC3CCCCC3)o2)cc1,"inconclusive: 25.9 µM [inhibitor, single point]",
Cc1ccccc1-n1nc(C)c2c1NC(=O)CSC2c1ccc(Cl)cc1 (stereo not given),"inconclusive: 29.1 µM [inhibitor, single point]",
COc1ccc(/C=C/C=C2C(=O)NC(=S)NC2=O)cc1,active: 3.26 µM,
CCCCn1c(=O)c(C(=O)NCc2ccccc2OC)c(O)c2ccccc21,"inconclusive: 29.1 µM [inhibitor, single point]",
CC(C)(C)n1c(O)c(C=Nc2ccc3c(c2)CCC3)c(=O)[nH]c1=O,"inconclusive: 20.6 µM [inhibitor, single point]",
Cc1[nH]c2ccc(OC(=O)N3CCOCC3)cc2c1C(=O)OC(C)C,"inconclusive: 18.4 µM [inhibitor, partial curve]",
CCOc1ccc(Cl)cc1CNCCc1ccc(F)cc1,active: 16.4 µM,
CCC[N+]12CCC(CC1)C(=C(c1ccccc1)c1ccccc1)C2,active: 20.6 µM,
CC(C)C(OC(=O)c1ccco1)C(=O)NCc1ccco1 (stereo not given),"inconclusive: 23.1 µM [inhibitor, single point]",

SMILES,Potency,"activity change, negative = growth inhibition"
CCn1c(O)c(C=NCCN2CCOCC2)c(=O)[nH]c1=S,,inactive: -5.46%
CC(C)n1nc(-c2cc3cc(O)ccc3[nH]2)c2c(N)ncnc21,active: 0.168 µM,
O=C1NCN(c2ccccc2)C12CCN(C(CCc1ccccc1)c1nnnn1-c1ccc3c(c1)OCCO3)CC2 (stereo not given),,inactive: -113%
Cc1ccc(-n2c(-c3ccc([N+](=O)[O-])cc3)nc3ccccc3c2=O)cc1,active: 8.2 µM,
CN1CCN(c2ccc([N+](=O)[O-])c(N)c2)CC1,,inactive: -4.34%
CN1CCN(c2nc(N)c(Br)c(Cl)n2)CC1,,inactive: -10.2%
N#CC(C#N)=Cc1cccnc1,active: 9.2 µM,
CCCC(=O)NC(Oc1ccccc1Cl)C(Cl)(Cl)Cl (stereo not given),,inactive: -10.5%
NC1=NC(=O)N2CC12 (stereo not given),"inactive and inconclusive: 33.5 µM [inhibitor, single point]",
O=C1NC(=O)C(Nc2ccccc2)C(=O)N1,,inactive: -11%
O=C(c1cc(Cl)cc(Cl)c1)N1Cc2ccccc2-n2nncc2C1,"inconclusive: 20.6 µM [inhibitor, single point]",
CC[C@H](C)[C@H](NC(=O)[C@@H]1CCCN1C(=O)[C@H](CCC(=O)O)NC(=O)[C@@H](NC(=O)[C@H](Cc1ccccc1)NC(=O)[C@@H]1CCCN1C(=O)[C@@H](N)Cc1ccc(O)cc1)C(C)C)C(=O)O,,inactive: 4.69% [at 4.12 µM]
C[C@]12CC[C@H]3[C@@H](CCC4=C(Cl)C(=O)CC[C@@]43C)[C@@H]1CC[C@@H]2O,"inconclusive: 29.9 µM [inhibitor, single point]",
O=C(Cn1ncn2c(cc3cc(F)ccc32)c1=O)N1CCC2(CC1)OCCO2,,inactive: 12.7%
NC[C@@H](CC(=O)O)c1ccc(Cl)cc1,,inactive: -0.582%
Fc1ccc(Cn2nnnc2CN2CCC(n3nnc4cc(C(F)(F)F)ccc43)CC2)cc1,"inconclusive: 18.4 µM [inhibitor, single point]",
CCOC(=O)c1cc2c(cn1)[nH]c1ccccc12,active: 18.4 µM,
COc1ccc(-c2cc(C(F)(F)F)n3nc(C(=O)N4CCC5(CC4)OCCO5)cc3n2)cc1OC,active: 20.6 µM,
CCC1(CCC(C)C)C(=O)NC(=O)N(c2ccccc2)C1=O (stereo not given),"inconclusive: 13 µM [inhibitor, partial curve]",
CCC(=NCCc1c[nH]c2ccccc12)c1c(O)n(C)c(=O)n(C)c1=O,active: 6.31 µM,
CCCc1nc2ccccc2c(=O)n1-c1ccccc1OC,active: 20.6 µM,
COC(=O)N(c1ccc(OC)cc1)P1(=S)OCCC(C)O1 (stereo not given),"inconclusive: 25.9 µM [inhibitor, single point]",
COc1cc(C)c(CNCCc2c[nH]c3ccccc23)cc1C,active: 7.31 µM,
CNCC(=O)c1ccc(O)c(O)c1,,inactive: -4.68%
COc1ccc(-c2ccc3c(c2)CN(C(=O)CCc2ccccc2)Cc2cnnn2-3)cc1,"inconclusive: 25.9 µM [inhibitor, single point]",
